Laboratory results published in publication PMC12136788.
Some of the results follow.

B1: chr10:89213657:89213758:-|3pUTR|ENSG00000107798|msi1|FALSE|unique (ssRNA)
RNA: GGGAGUUCUACAGUCCGACGAUCUUACAAUACUGUCCGGUGGACAAAAUGACAAUUGAUAUGUUUUUCUGAUAUAAUUACUUUAGCUGCACUAACAGUACAAUGCUUGUUAAUGGUUAAUAUAGGCAGGGCGAAUACUACUUUCAACAGAGGAUUGAGCAUCA
B2: chr5:40945159:40945374:+|CDS|ENSG00000112936|unk|total|mutant (ssRNA)
RNA: GGGAGUUCUACAGUCCGACGAUCGAAUUUUACAACCGUACUUGGUCUUAUGUAAAACAUACGUCGACAGAACACACAUCAUCCCGUCGGAAGCGCUCCUUUUUCCGAUCUUCAUCAUCUUCUUCACGCAGUUAUACUUCACAUCAACAGAGGAUUGAGCAUCA
B3: ENSG00000159164:stop:overlap|stop_codon|ENSG00000159164|stop_codon|NA|stop_codon (ssRNA)
RNA: GGGAGUUCUACAGUCCGACGAUCUUGCAUCCUGGAAUGCGCUGGACGUGUUGACUGUUGAACUCUACCCCUCAGACAAGAGGUAGUUGGAAUGUGUUGGAGGCAGGGCAGUGGAUUCAGGGGAGGGGUGGGGUGAGGAAGGAGCAACAGAGGAUUGAGCAUCA
B4: chr8:58582127:58582250:+|3pUTR|ENSG00000137575|unk|total|mutant (ssRNA)
RNA: GGGAGUUCUACAGUCCGACGAUCUUCAUAUUACUUCCGUUCUACCGCAUACUUGCAUCUUUAACAUGCUAUCACCGUACAUUCCGAAUGAUUGCCUUUGAUUUUUUUUUUAAAUUCUGUGUGUGUGUGUGUAAAAUGCCAAUUCAACAGAGGAUUGAGCAUCA
B5: chr16:66721972:66722075:-|3pUTR|ENSG00000135720|unk|FALSE|unique (ssRNA)
RNA: GGGAGUUCUACAGUCCGACGAUCUUUUUAAUUCAGUUUUUUAAAAAAACAAAUGUAUUGUGGCUUCCAGUUACCAGGUUGUCUAGGUAAUGACAGUAAACUGACUGUAGAAUGAUAAUUGUGGUAUAGUGACCAAUAGAUGCCCAACAGAGGAUUGAGCAUCA
B6: chr4:138171744:138171845:-|3pUTR|ENSG00000151012|msi1|FALSE|unique (ssRNA)
RNA: GGGAGUUCUACAGUCCGACGAUCAGGAGUCAGUUAUUUUUAUUCAUAUAUUUUAGCAUAUUCGAACUAAUUUCUAAGAAAUUUAGUUAUAACUCUAUGUAGUUAUAGAAAGUGAAUAUGCAGUUAUUCUAUGAGUCGCACAAUCAACAGAGGAUUGAGCAUCA
B7: chr15:44665791:44665971:-|CDS|ENSG00000229474|control|control|control (ssRNA)
RNA: GGGAGUUCUACAGUCCGACGAUCGAUCUGUUUGUUCUGGAAUACGUGUAUGUGGGAAGUUGAAUCAUCAGACACUAGCUACAUAGACUAUGUUUACAGGGAUCCAGAGAGUCUGAAGACAUUUCUUAUGCCUUUAUAUAUUGGCAACAGAGGAUUGAGCAUCA
B8: chr9:37357341:37357442:+|3pUTR|ENSG00000147905|unk|total|mutant (ssRNA)
RNA: GGGAGUUCUACAGUCCGACGAUCAUUAUCUAUGAUUAAAUAAAGUGAGUUUUUGGUUUUGUUUUUUUAAUUUCAGCCAUUCCCCGAGUUACUGAAUAUCCAUGGAGAUCUCAAUUCUCUGUGUCCAACAGGAUAUCCGGUAAGCAACAGAGGAUUGAGCAUCA
B9: chr7:73736928:73737391:-|CDS|ENSG00000106077|control|control|control (ssRNA)
RNA: GGGAGUUCUACAGUCCGACGAUCGGUAGAGGUAGACGGGCGCUUCGUGUGGAGGGUGAACUUGGAUGCCCUGACCCAGCACCUAGACAAGAUCUUGGCUUUCCCACAGAGGCAGGAGUCCUACCUCGGGCCAACACUCUUUCUCAACAGAGGAUUGAGCAUCA
B10: chr12:39619279:39619382:-|CDS|ENSG00000173208|unk|total|mutant (ssRNA)
RNA: GGGAGUUCUACAGUCCGACGAUCCGAGACCAUUUGUGAAAAACCUUCGCCUGGAGUGAAUGCAGAUUUCUUCAAACAGCUACCCGAACUUCGGAAAAUUUUGUUUCCAAAACUUGUGACCACUGAAACAGGGUGGCUCUGCCUCAACAGAGGAUUGAGCAUCA
B11: chr2:206755008:206755505:-|CDS|ENSG00000138400|control|control|control (ssRNA)
RNA: GGGAGUUCUACAGUCCGACGAUCCACUCUGGAGGACUGCCUCCGAAGCAGGGUGCCUCUCUGCAGGCUCUAUGGGUACCUGAUAGAGAAAAAUGCUCAUGAGUCUGUCAGAGUCAUCGUGGGAGGGAGAACCUUUGUAAACCUCAACAGAGGAUUGAGCAUCA
B12: chr15:90501451:90501552:+|3pUTR|ENSG00000140575|msi1_unk|total|mutant (ssRNA)
RNA: GGGAGUUCUACAGUCCGACGAUCCUGAGCCUCUAUUUUCUUUCUUUGAUGUUUUGAUUCAGUAUUCUUUUAUCAUAAAUUUUCCGCAUUUAAAAAUUCACUGAUGUACAUUAAGCCAAUAAACUGCUUUAAUGAAUAACAAACCAACAGAGGAUUGAGCAUCA
B13: chr1:203741760:203741861:+|3pUTR|ENSG00000058668|msi1|FALSE|unique (ssRNA)
RNA: GGGAGUUCUACAGUCCGACGAUCAUUUUGGUUUUGUAAAACGUACAUGCUUCAAUAAUUCUUUUUUGUGUCUUAAAUACUCAUAGGGGAAAAAAACAGCUCACCCAAGGUGUUAGGUUUCACAUAUAUAUUCAUCAACUAUUUCAACAGAGGAUUGAGCAUCA
B14: ENSG00000152601:stop:overlap|stop_codon|ENSG00000152601|stop_codon|NA|stop_codon (ssRNA)
RNA: GGGAGUUCUACAGUCCGACGAUCACCAGAUACCCAUAAUAUCUGCCGAACAUCUGACUAGCCACAAGUAUGUUACCCAGAUGUAGAAUUUUCAUCACUAAACAAUCAUGCUAAAGAGGAAAGGACAGUGUGCUUGGUUAGAGUCAACAGAGGAUUGAGCAUCA
B15: chr12:123761472:123761573:+|3pUTR|ENSG00000185344|unk|FALSE|unique (ssRNA)
RNA: GGGAGUUCUACAGUCCGACGAUCAAUAAGGCAGUUUGAACGAACAGUCUUCCCACAGUCAGGCCAUUUUUGCUGAUUUGGUUUAGAAUUUUCAGAAAUACUUAGUACACUCCACCUGUUCUUUGAUGGGAAUAUCUAAGAAGGCAACAGAGGAUUGAGCAUCA
B16: chr3:12540195:12540433:-|CDS|ENSG00000225526|control|control|control (ssRNA)
RNA: GGGAGUUCUACAGUCCGACGAUCCACCAUAACUGCUACUCUUACGCACUCACGUUCAUUAACUGCGUUCUGAUGGCAGAAGGUAGACAGCAACUGGACAAGGGUGAAUUUACGGAGAAGUACGUGGUCCCGCGGACAAGGCUGCAACAGAGGAUUGAGCAUCA
B17: chr1:155134173:155134274:+|3pUTR|ENSG00000169242|msi1|FALSE|unique (ssRNA)
RNA: GGGAGUUCUACAGUCCGACGAUCGCCACUUUCAGAGCCCCCAGCCCUGGGAACCACUCCCACCACAGGCAUAAGCUAUCACCUAGCAGCCUCAAAACGGGUCAGUAUUAAGGUUUUCAACCGGAAGGAGGCCAACCAGCCCGACAACAGAGGAUUGAGCAUCA
B18: chr19:34469546:34469571:+|3pUTR|ENSG00000126261|msi1_unk|FALSE|overlapping (ssRNA)
RNA: GGGAGUUCUACAGUCCGACGAUCGUUGCCUUUUUAAUGUAAAUACCCGUAGGUAUCAUUAAUAGUUUCAAAAUAUUGUGGUUUAGUAAAGUUGAUACCUGGUUAUAAAUAUUAUGCCUUUAUUUUUGGCUAGAAGAAGAAUUACAACAGAGGAUUGAGCAUCA
B19: chr2:166409664:166409935:-|three_prime_utr|ENSG00000136546|control|control|control (ssRNA)
RNA: GGGAGUUCUACAGUCCGACGAUCUGUGGUAACAAGCCAAGCUUUUAAUGUCAUUGUUAUGGUUCUUAUAUGUUUCCAAGCAAUAGCCAUGAUGAUAGACACUGAUGUUCAGAGUCUACAAAUGUCCAUUGCUCUCUACUGGAUCAACAGAGGAUUGAGCAUCA
B20: chr11:63758435:63758536:+|3pUTR|ENSG00000133318|msi1|FALSE|unique (ssRNA)
RNA: GGGAGUUCUACAGUCCGACGAUCAGAAAGAAUCAAAUUCAUAGGAUAAGUCAAUACCUUAAUGGUGGUAGAGCCUUUACCUGUAGCUUGAAAGGGGAAAGAUUGGAGGUAAGAGAGAAAAUGAAAGAACACCUCUGGGUCCUUCAACAGAGGAUUGAGCAUCA
B21: chr10:123051058:123051159:+|CDS|ENSG00000196177|unk|total|mutant (ssRNA)
RNA: GGGAGUUCUACAGUCCGACGAUCCAAGUGGCUCACGUGGCCACCCAGCUGGAAGCUGCAAGAUUACUAACAUACAAUGCUGCCCGGCUUUCCGAAGCUGGAAAGCCAUUCAUAAAAGAAGCGUCAAUGGCCAAAUACUAUGCACAACAGAGGAUUGAGCAUCA
B22: chrX:119453419:119453520:+|3pUTR|ENSG00000077713|unk|FALSE|unique (ssRNA)
RNA: GGGAGUUCUACAGUCCGACGAUCCAGGUAAUUGAAGUGGCUGAGUGGAUACCACGUUGUGAGGUCAGCCACUGGGUCACUUGUAGUCAAUGCAAAGCUUGCACAAACCAACGUCAGCCUAGUUUCACUCAGUUUGACCUGAGACAACAGAGGAUUGAGCAUCA

Target: MSI1 full-length (mouse, UniProt Q61474 1-362)
Assay: nsRBNS (natural sequence RNA bind-n-seq); RBNS binding buffer (assumed for nsRBNS): 25 mM Tris pH 7.5, 150 mM KCl, 3 mM MgCl2, 0.01% Triton X-100, 500 ug/ml BSA, 20 U/ml SUPERase-In, 4 C; UNK is unkempt and MSI1 is Musashi-1; names of the RNAs are library labels; protein concentration not given here; high values mean tight binding

UniProt Q61474, sequence (Q61474 whole entry): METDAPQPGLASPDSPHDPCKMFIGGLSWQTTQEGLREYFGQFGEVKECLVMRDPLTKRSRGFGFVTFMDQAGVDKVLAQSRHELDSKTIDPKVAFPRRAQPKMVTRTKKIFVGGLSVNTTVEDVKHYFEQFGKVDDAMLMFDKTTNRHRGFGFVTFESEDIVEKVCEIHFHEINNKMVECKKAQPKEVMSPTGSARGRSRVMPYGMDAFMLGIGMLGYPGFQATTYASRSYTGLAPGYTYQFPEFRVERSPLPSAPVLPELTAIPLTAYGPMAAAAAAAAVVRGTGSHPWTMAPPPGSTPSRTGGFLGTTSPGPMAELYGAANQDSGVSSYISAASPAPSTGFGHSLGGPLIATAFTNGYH

Binder	binding signal [enrichment R]
B1	1.3
B2	0.516
B3	1.98
B4	0.478
B5	9.43
B6	2.19
B7	0.282
B8	0.726
B9	0.528
B10	0.252
B11	0.692
B12	0.698
B13	2.11
B14	0.651
B15	0.821
B16	0.389
B17	0.655
B18	35.8
B19	0.263
B20	0.702
B21	0.283
B22	0.46
